The supplement of paper PMC10338343
± gives the standard deviation. Whole data set: some 3,700 sequences, median “pre-steady-state target cleavage rate” near 0.02, cut for the highest 2% near 0.23. Only a part is listed here, and it is no random draw.

Test system: MILI (PIWIL2) piRISC loaded with Kctd7 piRNA (26 nt)
Test: pre-steady-state target cleavage rate (min^-1); MIWI and MILI are mouse PIWI proteins and EfPiwi is from a freshwater sponge; tags in brackets are library labels; higher = faster piRNA-guided slicing of the target
Details: guide: Kctd7 piRNA 5'p-UGUUAAUCUCUCAGAGAAGGUGACAG; auxiliary factor: 500 nM mouse GTSF1
Outline: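 In Cleave-'n-Seq, a transcribed, DNA-blocked target RNA library (0.1 nM) was combined with 1 nM active affinity-purified piRISC bearing one synthetic guide, with or without 500 nM GTSF1 partner protein. Reactions ran in HEPES–potassium acetate buffer at 33 °C for 0–8 or 0–960 min. Uncleaved targets were sequenced and normalised to depth and to weakly complementary targets, three trials were pooled, and k3 was capped at 0.0001 min^-1. The pre-steady-state cleavage rate was obtained by fitting a burst-and-steady-state model.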

Row | Sequence | pre-steady-state target cleavage rate
1 | UAGUGACAGUGGAAGAGUGAGACAUUAUCA | < 0.0001
2 | UAGUGUGUGACCUUCUCAGAGAGAUUAACA | 0.112 ± 0.015
3 | UAGUGACACACCUUCUCUGAGACGAUUAACA | 0.0544 ± 0.01
4 | UAGUGACUGACCUUCUCUGAGAGAUAAACA | 0.0552 ± 0.013
5 | UAGUGACACACCUUCUCUGUGAGAUUUACA | 0.0492 ± 0.0084
6 | UAGUGACAGUGGAAGACUGAGAGAAUUAACA | < 0.0001
7 | UAGUGACAGUGCUUCUCUGAGAGAUUGAACA | 0.0897 ± 0.018
8 | UAGUCUGUCAGCUUGUCUGAGAGAUUAACA | 0.0411 ± 0.0057
9 | UAGUGACACACCAUGUCUGAGAGAUUAACA | 0.0751 ± 0.0098
10 | UAGUGACUCACCUUCUGUGAGACAUUAACA | 0.0336 ± 0.0082
11 | UAGUGAGUCACACUUCUCUGAGAGAUUAACA | 0.088 ± 0.0088
12 | UAGUGACAGACCAUCACUGAGAGAUUAACA | 0.0273 ± 0.0059
13 | UAGUGACACACCAUCUCUGAGAGAUUAAGA | 0.00883 ± 0.004
14 | UAGUGACAGUCCUUCUCUGAGAGCAUUAACA | 0.063 ± 0.0057
15 | UAGUGACUGUGCUUCUCUGAGAGAUUAAGA | 0.0537 ± 0.011
16 | UAGUGUGUCACCUUCUCUGAAGAGAUUAACA | 0.0134 ± 0.0046
17 | UAGUGAGUCACGUUGUCUGAGAGAUUAACA | 0.0943 ± 0.011
18 | UAGUGACAGUGCUUCGUCUGAGAGAUUAACA | 0.00406 ± 0.0031
19 | UAGUGACAGACCUUCUCUGUGAGAUUAACA | 0.031 ± 0.0046
20 | UAGUGACUCACCUUCUCUCUGAGAUUAACA | 0.0048 ± 0.0024
21 | UAGUGAGUCACCUUCUCAGACAGAUUAACA | 0.0343 ± 0.0095
22 | UAGUCUGUCACCUUCUCUGUCAGAUUAACA | 0.0106 ± 0.0032
23 | UAGUGAGUCACCUUGUCUGAGACAUUAACA | 0.0522 ± 0.016
24 | UAGUCUGUGACCUUCUCUCAGAGAUUAACA | 0.0415 ± 0.0042

Row | Sequence | pre-steady-state target cleavage rate
25 | UAGUGACAGUCCUUCUCUGAGAGAUGUAACA | 0.112 ± 0.026
26 | UAGUGAGUCACCUACUCUGAGAGAUUAUGA | 0.0554 ± 0.018
27 | UAGUGACAGUCCUUCUCUGUGAGAUUUACA | 0.0221 ± 0.0037
28 | UAGUGAGUCACCUCCUCUGAGAGAUUAACA | 0.223 ± 0.012
29 | UAGUGAGUCACCUAGACUGAGAGAUUAACA | 0.0595 ± 0.0067
30 | UAGUCUGUCAGCCUUCUCUGAGAGAUUAACA | 0.0883 ± 0.017
31 | UAGUGACAGUCCUUCUCUGAGAGAUUAAUA | 0.0418 ± 0.0083
32 | UAGUCUGUUCACCUUCUCUGAGAGAUUAACA | 0.215 ± 0.014
33 | UAGUCUGUCACCUUCUCUGUAGAGAUUAACA | 0.0114 ± 0.0037
34 | UAGUGACAGAGCUUCACUGAGAGAUUAACA | 0.0596 ± 0.012
35 | UAGUGACACACCUUCUCUGAGAGAUUCAACA | 0.244 ± 0.061
36 | UAGUGUGUCACCUUCUGUGAGAGAUUAACA | 0.185 ± 0.015
37 | UAGUGACACACCUACUCAGAGAGAUUAACA | 0.0526 ± 0.0091
38 | UAGUGACAGACCUUCUUCUGAGAGAUUAACA | 0.00858 ± 0.0034
39 | UAGUGUGUCACCUUGUGUGAGAGAUUAACA | 0.115 ± 0.01
40 | UAGUGAGUCACCUUCGUCUGAGAGAUUAACA | 0.0714 ± 0.01
41 | UAGUGACUCACGUACUCUGAGAGAUUAACA | 0.0384 ± 0.0057
42 | UAGUGUCACACCUUCUCUGAGAGAUUAACA | 0.163 ± 0.017
43 | UAGUCUGACACCUUCUCUGAGACAUUAACA | 0.024 ± 0.0028
44 | UAGUGAGUCACCUACUCAGAGAGAUUAACA | 0.0771 ± 0.0088
45 | UAGUGACACACCUUCUCUGACGAGAUUAACA | 0.00569 ± 0.0025
46 | UAGUGACAGUCCUUCUCUCAGAGUUUAACA | 0.00328 ± 0.0032
47 | UAGUCUCUCACCUUGUCUGAGAGAUUAACA | 0.0068 ± 0.0039
48 | UAGUGACAGUGCUUCUCUGAGAGAUUAAA | 0.00274 ± 0.0026

Row | Sequence | pre-steady-state target cleavage rate
49 | UAGUGUGUGACCUUCUCUGAGAGAUUAUGA | 0.0165 ± 0.007
50 | UAGUGAGUCACCUUGUCUGACAGAUUAACA | 0.0434 ± 0.013
51 | UAGUGACUCACCAUCUGUGAGAGAUUAACA | 0.0783 ± 0.0062
52 | UAGUGACAGACCUUGUCUGACAGAUUAACA | 0.0121 ± 0.0036
53 | UAGUGUGUCAGCCUUCUCUGAGAGAUUAACA | 0.0557 ± 0.0088
54 | UAGUGACACACGUUCUCUGAGAGAUUAAGA | 0.0407 ± 0.0073
55 | UAGUGACAGUCCUUCUCUGAGAGAUUACA | 0.00372 ± 0.0026
56 | UAGUGACAGACCUUAUCUGAGAGAUUAACA | 0.0894 ± 0.017
57 | UAGUGACACACCUUCUGUCAGAGAUUAACA | 0.0317 ± 0.0084
58 | UAGUGACAGUCCUACUCUCAGAGAUUAACA | 0.0051 ± 0.0015
59 | UAGUGACUCACCUACUCUGAGAGUUUAACA | 0.0635 ± 0.013
60 | UAGUGACACAGCUUCUCUGACAGAUUAACA | 0.00821 ± 0.0032
61 | UAGUCUGUCAGGUUCUCUGAGAGAUUAAGA | 0.00753 ± 0.0037
62 | UAGUGACUCACCAUCUCUGAGAGAAUAACA | 0.0138 ± 0.0056
63 | UAGUGACAGUGGUUCUCUGAGAGGUUAACA | 0.00596 ± 0.0021
64 | UAGUGACAGACCUUCAGUGAGAGAUUAUGA | 0.00709 ± 0.0042
65 | UAGUGUGUCACCUAUCUCUGAGAGAUUAACA | 0.136 ± 0.0078
66 | UAGUGACUCACCAAGUCUGAGAGAUUAAGA | 0.00481 ± 0.0037
67 | UAGUGACUCACCUUCUGUGAGAGAUUAUGA | 0.0186 ± 0.0066
68 | UAGUCUGUCACGAACUCUGAGAGAUUAAGA | 0.00281 ± 0.0023
69 | UAGUGACAGAACUUCUCUGAGAGAUUAACA | 0.0413 ± 0.011
70 | UAGUCUCUCUCCUUCUCUGAGAGAUUAACA | 0.0433 ± 0.011
71 | UAGUCUGUCACCUUCUCGGAGAGAUUAACA | 0.155 ± 0.011
72 | UAGUGACUCGCCUUCUCUGAGAGAUUAACA | 0.134 ± 0.015
